Experimental data taken from PubChem BioAssay AID504332 (National Center for Advancing Translational Sciences (NCATS), 2011).
Among all 350,000 compounds or so, about 31,000 (8.9%) were called active. This list was built around the results that the source calls inconclusive (neither active nor inactive); the mix of calls is not that of the screen. Calls come from the whole dose curve; as a rule, active = well fitted inhibition curve with a large enough effect; inconclusive = small, poorly fitted or top-dose-only effect; inactive = no such curve, though single readings can be large or run the other way. Potencies of inconclusive entries are doubtful fits and often do not repeat.
% is set by controls: 0 for no effect and ±100 for the full control effect; potency is the fitted concentration of half-maximal effect; tags give direction and shape of the fitted curve.
Note: nearly all actives have a fitted effect of over 75% in size.

The compounds below were run against Histone-lysine N-methyltransferase EHMT2 (Homo sapiens) (UniProt Q96KQ7) (assay: qHTS Assay for Inhibitors of Histone Lysine Methyltransferase G9a). Conditions: G9a H3K9 monomethylation, AlphaScreen, 2 h; activity, negative = inhibition: at 59 µM (top of the series) unless noted.
UniProt Q96KQ7, sequence (Q96KQ7 whole entry, looked up): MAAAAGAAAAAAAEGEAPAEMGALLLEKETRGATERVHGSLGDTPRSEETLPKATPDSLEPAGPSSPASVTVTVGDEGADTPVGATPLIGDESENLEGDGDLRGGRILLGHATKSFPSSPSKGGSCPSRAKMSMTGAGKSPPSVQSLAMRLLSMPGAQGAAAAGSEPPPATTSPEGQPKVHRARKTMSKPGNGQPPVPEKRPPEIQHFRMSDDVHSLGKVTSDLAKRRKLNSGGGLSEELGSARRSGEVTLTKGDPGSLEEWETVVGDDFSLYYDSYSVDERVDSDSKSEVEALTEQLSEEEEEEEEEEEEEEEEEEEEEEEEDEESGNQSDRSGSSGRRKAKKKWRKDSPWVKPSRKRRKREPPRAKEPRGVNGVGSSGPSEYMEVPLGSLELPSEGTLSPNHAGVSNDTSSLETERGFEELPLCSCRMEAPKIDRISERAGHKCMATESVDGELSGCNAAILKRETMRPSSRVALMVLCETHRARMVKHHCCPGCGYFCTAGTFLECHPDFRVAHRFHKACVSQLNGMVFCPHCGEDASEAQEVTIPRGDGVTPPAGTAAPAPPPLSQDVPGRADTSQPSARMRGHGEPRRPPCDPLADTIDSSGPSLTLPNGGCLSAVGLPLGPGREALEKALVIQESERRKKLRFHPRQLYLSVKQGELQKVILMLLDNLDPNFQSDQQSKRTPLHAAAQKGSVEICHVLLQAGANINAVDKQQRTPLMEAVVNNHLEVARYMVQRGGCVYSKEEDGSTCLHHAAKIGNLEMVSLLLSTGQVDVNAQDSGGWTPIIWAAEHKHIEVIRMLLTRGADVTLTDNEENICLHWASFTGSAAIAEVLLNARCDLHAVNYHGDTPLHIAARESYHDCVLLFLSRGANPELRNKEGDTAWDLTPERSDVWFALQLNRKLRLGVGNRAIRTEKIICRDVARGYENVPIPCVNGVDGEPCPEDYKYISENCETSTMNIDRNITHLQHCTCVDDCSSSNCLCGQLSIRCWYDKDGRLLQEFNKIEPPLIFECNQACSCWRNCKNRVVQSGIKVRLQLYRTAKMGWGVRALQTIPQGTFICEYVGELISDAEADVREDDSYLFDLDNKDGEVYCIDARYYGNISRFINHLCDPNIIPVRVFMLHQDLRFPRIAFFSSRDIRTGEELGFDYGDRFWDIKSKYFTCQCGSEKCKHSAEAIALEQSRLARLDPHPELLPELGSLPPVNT
How it was run: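 G9a (20 nM) preincubated 15 min RT with compounds, then 500 nM biotinylated H3K9 peptide and 20 uM SAM added; 2 h RT reaction. Monomethyl-H3K9 product detected by AlphaScreen with anti-H3K9me1 antibody, streptavidin donor and anti-rabbit IgG acceptor beads.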
With `Cc1cccc(N=Cc2c(O)cc(C)oc2=O)c1` the Potency was inconclusive: 89.1 µM [inhibitor, single point].
For `COc1ccccc1OCC(=O)NCc1n[nH]c(=O)c2ccccc12`, the activity, negative = inhibition was inactive: 11.2% [at 0.501 µM].
With `O=c1/c(=C\c2ccc(O)cc2)sc2nc(-c3ccccc3)c(-c3ccccc3)n12` the activity, negative = inhibition was inconclusive: -53.5% [inhibitor].
For `COc1ccc(OCC2CNC(=O)O2)cc1` (stereo not given), the Potency was inconclusive: 70.8 µM [inhibitor, single point].
`COc1ccc(N2CCN(C(=O)c3oc4ccccc4c3NC(=O)CCc3cc(OC)no3)CC2)cc1` was tested, and the Potency was active: 35.5 µM.
For `Cc1cc(C)c(OCCOCCN2CCN(C)CC2)c(Cl)c1`, the Potency was active: 3.55 µM.
`NC(=O)CSc1nnc(-c2ccc(O)cc2)n1Cc1ccco1` was tested, and the “activity, negative = inhibition” value was inactive: 7.77%.
With `O=c1oc2c3c(ccc2c2ccccc12)OCN(Cc1ccc(Cl)cc1)C3` the Potency was active: 1.41 µM.
With `Cc1cc2cc(CNC(=O)c3cccc([N+](=O)[O-])c3)ccc2[nH]1` the Potency was inconclusive: 79.4 µM [inhibitor, single point].
`O=C(Nc1cccc(C(F)(F)F)c1)C(Sc1cccc[n+]1[O-])c1ccccc1` (stereo not given) was tested, and the Potency was inconclusive: 39.8 µM [inhibitor, single point].
In the case of `NC(=O)c1ccnc2c(O)cccc12`, the activity, negative = inhibition is reported as inactive: -30.8% [at 0.501 µM].
With `c1cnc(N2CCN(c3ncc4c(n3)CCNC4)CC2)nc1` the Potency was inconclusive: 39.8 µM [inhibitor, single point].
`COc1ccc(NC(=O)CSc2ncnc3c2sc2ccccc23)c(OC)c1` was tested, and the Potency was inconclusive: 39.8 µM [inhibitor, partial curve, poor fit].
In the case of `Cc1ccc(Nc2nc(C(=O)N3CCC(C(=O)NC(C)C)CC3)cs2)cc1`, the activity, negative = inhibition is reported as inconclusive: -53.5% [inhibitor].
`O=C(NCc1ccc2c(c1)OCO2)c1cccc(N2CCCC2=O)c1` was tested, and the Potency was inconclusive: 79.4 µM [inhibitor, single point].
For `COc1ccc(-c2cc(-c3ccco3)[nH]c(=O)c2C#N)cc1OC`, the Potency was active: 10 µM.
In the case of `O=C(Nn1cc(C(=O)Nc2ccc(F)cc2F)c2ccccc2c1=O)c1cnccn1`, the Potency is reported as active: 0.794 µM.
In the case of `COc1ccc(-n2nnnc2C2CCN(S(=O)(=O)c3ccc(C)cc3)CC2)cc1`, the “activity, negative = inhibition” value is reported as inactive: 2.39%.
`N#CCC(=O)N/N=C/c1ccc(OCc2ccccc2)cc1` was tested, and the Potency was inconclusive: 0.562 µM [inhibitor, partial curve, poor fit].
`CC1CC2(CCCCC2)Nc2c1ccc1ccccc21` (stereo not given) was tested, and the Potency was inconclusive: 39.8 µM [inhibitor, single point].
With `Cc1ccc(-c2cc(C(=O)N/N=C\c3cnn(C)c3C)c3ccccc3n2)cc1C` the activity, negative = inhibition was inactive: 11.9% [at 12.7 µM].
For `CCCCN(C)CCC(=O)Nc1ccc(C)cc1`, the Potency was inconclusive: 31.6 µM [inhibitor, single point].
With `O=C1CCC[C@@H]2CC(NCc3ccc(Cl)c(Cl)c3)C[C@@H]3CCN1[C@H]23` (stereo not given in full) the Potency was inconclusive: 28.2 µM [inhibitor, partial curve, poor fit].
With `COc1ccc(C(=O)CSc2n[nH]c(N)n2)cc1` the Potency was inconclusive: 4.47 µM [inhibitor, single point].
In the case of `Cc1ccc(-c2ccc(CCC(=O)O)n2-c2ccc(C(N)=O)cc2)cc1`, the Potency is reported as inconclusive: 25.1 µM [inhibitor, single point].
For `COc1ccc2[nH]cc(CCNc3ncncc3-c3ccc(C(=O)N(C)C)cc3)c2c1`, the activity, negative = inhibition was inactive: -27.2% [at 0.501 µM].
`CC1=C(c2ccc(C)cc2)S(=O)(=O)N(Cc2ccc(C(=O)Nc3ccc(C)c(F)c3)cc2)C1=O` was tested, and the “activity, negative = inhibition” value was inactive: 3.4%.
In the case of `O=S(=O)(c1ccc(F)cc1)N1CCN(CC(O)COCC2CCCO2)CC1` (stereo not given), the Potency is reported as active: 15.8 µM.
For `CC1CCc2c(sc(NC(=O)CSc3ncn[nH]3)c2C#N)C1` (stereo not given), the “activity, negative = inhibition” value was inactive: 12.1%.
For `CC(=O)c1c(C)oc2c1cc(NS(=O)(=O)c1ccc(C(=O)O)cc1)c1ccccc12`, the Potency was inconclusive: 79.4 µM [inhibitor, single point].
With `Cc1csc(Sc2ccc([N+](=O)[O-])cc2C(=O)OCC(=O)NC(=O)NC(C)(C)C)n1` the Potency was inconclusive: 22.4 µM [inhibitor, single point].
For `O=C(CSc1nc(-c2ccco2)cc(C(F)(F)F)n1)N1CCN(Cc2ccccc2)CC1`, the Potency was inconclusive: 89.1 µM [inhibitor, single point].
In the case of `CC(=O)N1CCc2cc(S(=O)(=O)NC(Cc3ccccc3)C(=O)Nc3cc(C)ccc3C)ccc21` (stereo not given), the Potency is reported as inconclusive: 28.2 µM [inhibitor, partial curve, poor fit].
`O=C(COC(=O)c1cccc(S(=O)(=O)N2CCCC2)c1)Nc1ccccc1Cl` was tested, and the Potency was inconclusive: 100 µM [inhibitor, single point].
In the case of `CCOc1ccc(C(=O)NC(=S)Nc2ccccc2N2CCOCC2)cc1Br`, the Potency is reported as inconclusive: 25.1 µM [inhibitor, single point].
In the case of `O=C(Cc1ccccc1)NNC(=O)C1CCN(c2ncccn2)CC1`, the “activity, negative = inhibition” value is reported as inactive: 2.95% [at 102 µM].
For `COc1ccc(Cl)cc1N(C(=O)c1ccco1)C(C(=O)NC1CCCC1)c1ccco1` (stereo not given), the Potency was inconclusive: 89.1 µM [inhibitor, single point].
In the case of `COCCn1c(SCC(=O)NC(=O)NC2CCCC2)nc2ccccc2c1=O`, the activity, negative = inhibition is reported as inactive: 19.5% [at 12.7 µM].
With `N/C(=N\OS(=O)(=O)c1ccccc1)c1ccccn1` the Potency was inconclusive: 22.4 µM [inhibitor, single point].
`COc1cc(/C=C2/SC(=S)NC2=O)ccc1OS(=O)(=O)c1ccc(C)cc1` was tested, and the Potency was active: 20 µM.
With `COc1ccc([C@H]2CC(=O)C=C(c3ccc(C)c(F)c3)C2)cc1` the activity, negative = inhibition was inactive: 11% [at 2.33 µM].
`COc1ccc2cc(-c3cc(C(=O)O)c4ccccc4n3)ccc2c1` was tested, and the Potency was inconclusive: 50.1 µM [inhibitor, single point].
`Cc1ccc(C(=O)CCC(=O)NCc2ccccc2)cc1` was tested, and the “activity, negative = inhibition” value was inactive: 7.84% [at 102 µM].
In the case of `COc1ccc(N2CCN(C(=O)NC34CC5CC(CC(C5)C3)C4)CC2)cc1`, the Potency is reported as inconclusive: 39.8 µM [inhibitor, single point].
In the case of `CCCSc1nc(-c2ccccc2)[nH]c1S(=O)(=O)c1ccc(C)cc1`, the Potency is reported as active: 12.6 µM.
`Cc1c(NC(=O)c2cn3ccccc3n2)cccc1-n1cnnn1` was tested, and the Potency was inconclusive: 44.7 µM [inhibitor, partial curve].
With `Cc1cc(S(=O)(=O)NCCN2CCOCC2)c(C)s1` the Potency was inconclusive: 25.1 µM [inhibitor, partial curve, poor fit].
`COc1ccc(C)cc1NS(=O)(=O)c1ccc(Br)s1` was tested, and the activity, negative = inhibition was inactive: 18.6% [at 2.33 µM].
In the case of `N#Cc1ccc(C(=O)N/N=C/c2cn(CC(=O)O)c3ccccc23)c(F)c1`, the Potency is reported as inconclusive: 28.2 µM [inhibitor, single point].
In the case of `Cc1ccccc1/C=N/Nc1ccc(Cl)nn1`, the Potency is reported as active: 10 µM.
With `O=C(O)c1cc(N/N=C/C(Cl)=C/c2ccccc2)ccc1Cl` the Potency was active: 35.5 µM.
`CCOC(=O)N1CCC(NC(=O)CNS(=O)(=O)c2ccc(Br)s2)CC1` was tested, and the Potency was inconclusive: 89.1 µM [inhibitor, single point].
`O=C(COc1ccccc1Br)NCCC1=CCCCC1` was tested, and the Potency was inconclusive: 3.98 µM [inhibitor, single point].
For `CC(=O)/C(=N/Nc1ccc(C)cc1)Sc1nnc(CCc2ccccc2)n1-c1ccccc1`, the Potency was inconclusive: 39.8 µM [inhibitor, single point].
With `CC(C)/C=N/Nc1nc(-c2ccc(Br)cc2)cs1` the “activity, negative = inhibition” value was inactive: -18.1% [at 102 µM].
In the case of `Cc1cc(C)c2c(n1)sc1c(-c3ccccc3)c(C#N)c(N)nc12`, the Potency is reported as active: 7.94 µM.
For `Cc1cc(C)c(C#N)c(SCc2[nH]nc3c2C(c2ccccc2)C(C#N)=C(N)O3)n1` (stereo not given), the “activity, negative = inhibition” value was inactive: -44.7%.
With `CCc1cc(-c2n[nH]c(C)c2Oc2ccc(C(C)C)cc2)c(O)cc1O` the activity, negative = inhibition was inactive: 6.31% [at 12.7 µM].
`COc1ccc(CC(=O)NCc2n[nH]c(=S)n2-c2ccc(Br)cc2)cc1` was tested, and the Potency was inconclusive: 7.08 µM [inhibitor, full curve].
In the case of `CC/C(=N/NC(=O)CCC(=O)Nc1ccccc1OC)c1ccccc1`, the Potency is reported as inconclusive: 31.6 µM [inhibitor, single point].
`CC1=Nc2cc(C(=O)N3CCC(C)CC3)ccc2Sc2ccc(Cl)cc21` was tested, and the “activity, negative = inhibition” value was inactive: -32.2%.
`Cn1cc(S(=O)(=O)N2CCCCCC2)cc1C(=O)Nc1ccc(Cl)c(C(F)(F)F)c1` was tested, and the “activity, negative = inhibition” value was inactive: 3.37%.
`CCc1cccc(C)c1NC(=O)Cn1nnc(-c2nc(-c3ccccc3F)no2)c1N` was tested, and the Potency was inconclusive: 3.98 µM [inhibitor, full curve, poor fit].
With `Cc1ccc(-n2c(O)c(C=NC3CCS(=O)(=O)C3)c3ccccc3c2=O)cc1C` (stereo not given) the “activity, negative = inhibition” value was inactive: 6.2%.
`COc1ccc(CNc2ccc3c(c2)ncn3-c2ccccc2OC)cc1` was tested, and the activity, negative = inhibition was inconclusive: -112% [inhibitor].
`CCN(CC)C(=O)CSc1nc2ccc(NC(=O)CSc3nccn3C)cc2s1` was tested, and the Potency was inconclusive: 31.6 µM [inhibitor, single point].
`CCC(=O)OC1(C)C(=O)C=C2C=C(c3ccsc3)OC=C2C1=O` (stereo not given) was tested, and the Potency was inconclusive: 7.08 µM [inhibitor, single point].
`CCN(CCO)Cc1csc2cc(C)ccc12` was tested, and the Potency was inconclusive: 11.2 µM [inhibitor, partial curve, poor fit].
`COc1ccc(C)cc1COC(=O)c1[nH]c(C)c(C(C)=O)c1C` was tested, and the Potency was inconclusive: 79.4 µM [inhibitor, single point].
With `COC(=O)c1ccc(CNC(=O)c2c3c(nc4ccccc24)CCN(Cc2ccccc2)C3)cc1` the Potency was inconclusive: 6.31 µM [inhibitor, full curve, poor fit].
